Test results: paper PMC4336329 (PLoS ONE, 2015)
Hit rate of the full screen: of about 310,000 compounds, about 2,200 (0.71%) showed an effect of 50% or more. Effects have a minus sign here. Some of the results follow.

What follows are molecules tested against human ether-à-go-go-related gene (hERG) potassium channel (human, UniProt Q12809) (assay: primary screen, population patch clamp on CHO cells stably expressing hERG).
human ether-à-go-go-related gene (hERG) potassium channel, sequence (Q12809 whole entry, looked up): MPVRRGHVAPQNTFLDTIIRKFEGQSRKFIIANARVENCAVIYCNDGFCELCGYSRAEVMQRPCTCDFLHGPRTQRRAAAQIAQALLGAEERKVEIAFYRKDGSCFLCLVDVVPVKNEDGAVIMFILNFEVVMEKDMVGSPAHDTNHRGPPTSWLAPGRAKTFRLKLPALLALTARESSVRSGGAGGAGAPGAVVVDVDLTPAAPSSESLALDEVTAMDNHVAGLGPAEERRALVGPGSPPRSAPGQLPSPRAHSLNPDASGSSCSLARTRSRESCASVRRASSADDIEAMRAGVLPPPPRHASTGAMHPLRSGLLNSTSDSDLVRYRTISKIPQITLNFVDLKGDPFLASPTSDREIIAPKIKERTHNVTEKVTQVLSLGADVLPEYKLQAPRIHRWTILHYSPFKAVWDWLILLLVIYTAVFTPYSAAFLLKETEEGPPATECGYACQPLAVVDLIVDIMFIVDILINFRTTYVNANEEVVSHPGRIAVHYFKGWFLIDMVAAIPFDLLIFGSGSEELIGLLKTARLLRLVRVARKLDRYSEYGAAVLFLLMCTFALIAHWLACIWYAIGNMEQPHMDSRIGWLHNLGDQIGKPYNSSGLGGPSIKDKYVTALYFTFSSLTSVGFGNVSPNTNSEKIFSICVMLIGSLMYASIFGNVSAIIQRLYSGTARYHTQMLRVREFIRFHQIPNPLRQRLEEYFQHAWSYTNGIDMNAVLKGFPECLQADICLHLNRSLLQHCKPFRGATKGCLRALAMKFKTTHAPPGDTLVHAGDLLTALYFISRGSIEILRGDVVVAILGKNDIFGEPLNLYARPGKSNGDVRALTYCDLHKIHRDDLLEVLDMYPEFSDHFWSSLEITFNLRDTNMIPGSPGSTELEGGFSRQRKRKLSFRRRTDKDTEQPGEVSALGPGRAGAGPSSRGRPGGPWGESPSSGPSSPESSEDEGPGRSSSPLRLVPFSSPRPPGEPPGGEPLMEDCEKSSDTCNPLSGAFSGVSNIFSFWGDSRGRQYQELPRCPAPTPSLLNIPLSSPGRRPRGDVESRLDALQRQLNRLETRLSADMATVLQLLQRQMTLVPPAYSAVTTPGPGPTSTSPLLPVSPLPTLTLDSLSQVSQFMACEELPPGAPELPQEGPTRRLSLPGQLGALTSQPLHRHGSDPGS

SMILES	hERG current change (%, negative = inhibition) at 1uM [%]
NNc1nc(-c2ccccc2Cl)nc2sc3c(c12)CCCC3	16.4
COc1ccc(-c2nnnn2C)cc1S(=O)(=O)NCc1ccccc1	3.04
C[C@H]1O[C@H]1P(=O)([O-])[O-].[Na+]	3.98
Cc1ccc(C)c(S(=O)(=O)N2CCN(CC(=O)Nc3ccc4c(c3)CCC4)CC2)c1	3.13
CC1CCN(CC[C@H]2CCCN2S(=O)(=O)c2cccc(O)c2)CC1.Cl	-3.3
Cc1sc(N/N=C/C=C/c2ccccc2)nc1-c1ccccc1	7.63
CCc1ccc2[nH]c3nc(SCCN4CCOCC4)nnc3c2c1	12.4
COCCNC(=O)/C(C#N)=C/c1c(F)cccc1Cl	22
Cc1cc(=O)oc2cc(NC(=O)c3cc4ccccc4o3)ccc12	9.07
CC1(C)CC(=O)C/C(=N/NC(=O)CCCOc2ccc(Cl)cc2Cl)C1	-0.436
Cc1cc(NC(=O)CSCC(=O)N2CCN(c3cccc(C(F)(F)F)c3)CC2)no1	10.4
CN(CC1CCCO1)S(=O)(=O)c1ccc(C(=O)Nc2ccc3c(c2)OCO3)cc1 (stereo not shown)	9.53
CCOC(=O)c1sc2nc[nH]c(=O)c2c1C	12.6
CCOc1ccccc1C1C2CCCCC2(O)CCN1C(=O)c1cccs1 (stereo not shown)	-1.66
Cn1c(C(=O)N2CCN(Cc3ccccc3)CC2)cc2c(=O)n(C)c3ccccc3c21	4.78
CCN(CC)c1ccc(N2C(=O)/C(=C\c3cccnc3)SC2=S)cc1	7.28
CN(Cc1c(F)cccc1Cl)c1nnnn1-c1ccccc1	11
Cc1nc2nc(-c3ccccc3)cc(=O)n2[nH]1	9.8
O=C(Nc1cccc(NC(=O)c2ccc(Br)cc2)c1)c1ccccc1	12.6
O=C(CO/N=C/c1ccc(OC(F)F)cc1)NC1CCCC1	-2.37
COc1ccc(Br)cc1/C=N/NC(=O)CN1CCN(Cc2ccccc2)CC1	6.09
Cc1ccccc1-c1nnc(CN2CCN(C(=O)c3ccco3)CC2)o1	-0.975
Oc1ccccc1/C=N/n1c2ccccc2c2ccccc21	14.5

SMILES	hERG current change (%, negative = inhibition) at 1uM [%]
O=C(Nc1ccc2c(c1)CN(Cc1ccccc1O)CC2)C1CCCO1 (stereo not shown)	8.1
Cc1cc(C)c(N)cc1C	9.5
COc1ccccc1N1CCN(C2CCCN(C(=O)CCC(C)=O)C2)CC1 (stereo not shown)	17
Cl.NS(=O)(=O)c1ccc(CCNCc2ccccc2OCc2ccc(F)cc2)cc1	-21.5
COc1ccc([C@H]2CC(=O)C=C(c3ccc(O)cc3)C2)cc1OC	18.6
Cc1ccc2c(NC(=O)c3ccco3)cccc2n1	9.15
O=C(CN1C(=O)c2cccc([N+](=O)[O-])c2C1=O)OCC(=O)N1CCCCC1	7.29
COc1cccc2c1C(=O)c1c(O)c3c(c(O)c1C2=O)C[C@@](O)(C(=O)CO)C[C@@H]3O[C@H]1C[C@H](N)[C@@H](O)[C@H](C)O1.Cl	13.3
COc1cccc(-c2cc3nc(-c4ccccc4)cc(N4CCCC(O)C4)n3n2)c1 (stereo not shown)	5.78
Cc1[nH]c(=O)[nH]c(=O)c1Cc1cccc2ccccc12	19.8
O=C(NNC(=O)c1cccc2ccccc12)c1ccccc1O	7.43
O=C(CSc1nnc2ccccn12)NC(=O)Cc1ccccc1	18.1
COc1ccc(C)cc1NC(=O)C1CCCN(S(=O)(=O)c2cccc3nonc23)C1 (stereo not shown)	5.92
O=C(Nc1cccc(OC(=O)c2cccnc2)c1)c1cccnc1	15.1
COc1ccc(N=Cc2c(O)[nH]c3ccccc23)cc1	-11
CC(=O)OCCCCON1C(=O)c2ccccc2C1=O	12
OCC[C@@H]1C[C@H](O)[C@@H](O)[C@@]2(CCCO2)O1	-1.76
CCc1ccccc1OCC(=O)Nc1cccc(S(=O)(=O)NC2=NCCCCC2)c1	5.88
Cc1c(CC(=O)O)c(=O)oc2cc(OCc3ccc(F)cc3Cl)ccc12	11.5
CC1CCc2nc3ccccc3c(C(=O)OCC(=O)N(C)C3CCS(=O)(=O)C3)c2C1 (stereo not shown)	8.28
O=C(Nc1cccc(S(=O)(=O)NC2=NCCC2)c1)C1CCC1	5.29
O=C(NN1CCOCC1)c1ccco1	16.2
Fc1ccc(CSc2nncn2NCc2ccccc2)cc1	3.39

SMILES	hERG current change (%, negative = inhibition) at 1uM [%]
Cc1[nH]c2ccccc2c1C(=O)CN1CC=C(c2ccccc2)CC1	-6.34
CCOC(=O)C1CCCN(c2cc(=O)n(-c3ccccc3Cl)c(=O)[nH]2)C1 (stereo not shown)	10.9
COc1ccc(Nc2cc(C)c3ccccc3n2)cc1	13.5
COc1cccc2c1OC1(CCN(C(C)C)CC1)N1N=C(c3cccnc3)CC21 (stereo not shown)	8.8
O=C(NCC1COc2ccccc2O1)c1ccc(Cl)cc1 (stereo not shown)	5.32
CSCCC(NC(=O)c1ccccc1)C(=O)O (stereo not shown)	9.4
COc1cc(C2(O)CCCCC2C)cc(OC)c1OC (stereo not shown)	12.8
CCCCOc1cccc(C(=O)O)c1	4.19
O=C(COC(=O)c1ccc(Cl)nc1)Nc1cccnc1Cl	18.1
NC(=S)N/N=C1\CC(n2nnnc2-c2ccccc2)C2COC1O2 (stereo not shown)	6.36
CC1/C(=N/O)CC(c2ccco2)NC1c1ccco1 (stereo not shown)	15.6
CCc1ccc(C(=O)NC(=S)NCc2cccnc2)cc1	-6.72
CN1CCN(S(=O)(=O)c2ccc3c(c2)NC(=O)C2CCCN32)CC1 (stereo not shown)	13.4
O=C(O)COCC(=O)Nc1cc(C(F)(F)F)cc(C(F)(F)F)c1	8.94
NC(=O)c1cnn(C2CCS(=O)(=O)C2)c1 (stereo not shown)	11.4
CCn1c(SCC(=O)NCc2ccc3c(c2)OCO3)nnc1-c1ccco1	2.87
Cc1c(C)n(Cc2ccccc2)c2ncnc(NCCCN(C)C)c12	9.15
CCOc1cccc(-c2c(C(=O)N/N=C/c3ccco3)nnn2-c2nonc2N)c1	10.7
CCCCOC(=O)Nc1nc(C)c(C(=O)OCC)s1	0.987
CCCC(=O)c1cc(-c2nc3ccccc3n2C)n(C)c1	9.66
O=C(Nc1ccc(CN2CCOCC2)cc1)c1ccccc1F	5.74
CCN(CCCNC(=O)C1CCN(C(=O)c2cc3sccc3n2C)CC1)Cc1ccccc1	-10.4
CC(CNS(=O)(=O)c1ccccc1)(c1ccccc1)N1CCCCC1 (stereo not shown)	14.3

SMILES	hERG current change (%, negative = inhibition) at 1uM [%]
Cc1cc(C)n(-c2nc3ccccc3nc2Nc2ccc3c(c2)OCO3)n1	21.4
CCN(CC)C(=O)c1cn(-c2ccccc2)nc1-c1ccc2c(c1)OCCO2	9.11
Nc1ccc(C(=O)N2CCN(S(=O)(=O)/C=C/c3ccccc3)CC2)cc1[N+](=O)[O-]	-3.29
CC(NC(=O)c1ccc2c(c1)OCO2)C(c1cccs1)N1CCOCC1 (stereo not shown)	7.73
O=c1c(Cc2ccc(Cl)cc2Cl)c(O)ccn1CC(F)(F)F	8.81
COc1ccc(N2CCN(S(=O)(=O)c3ccc4c(c3)OCCO4)CC2)cc1	6.68
COc1cc(/C=C2/C(=O)ON=C2C)ccc1OCc1ccccc1F	6.43
Cc1ccc(-c2[nH]c(=O)n3ccncc23)s1	15.9
CCN(CC)C(=O)Cn1cc(SCC(=O)NCc2ccco2)c2ccccc21	5.24
Cc1ccc2cc(CN(CC3CCCO3)S(=O)(=O)c3c(C)ccc4nsnc34)c(=O)[nH]c2c1 (stereo not shown)	-4.59
NC(=O)c1ccc(Oc2ccc3ccc(=O)oc3c2)c([N+](=O)[O-])c1	-6.58
COc1ccc(C(=O)Nc2nnc(Cc3cccs3)s2)cc1OC	10.7
CCOc1ccc(S(=O)(=O)N2CCN(C)CC2)cc1NC(=O)c1ccccc1F	-22
CC(C)C(NS(=O)(=O)c1cccs1)C(=O)NCCN1CCN(c2ccccc2)CC1 (stereo not shown)	-4.31
CC(C(N)=O)N1c2cccc3cccc(c23)S1(=O)=O (stereo not shown)	9.45
COc1ccccc1NS(=O)(=O)c1cc(C(=O)NCC(C)(C)N2CCOCC2)ccc1C	5.76
COc1ccc(C2C(C#N)=C(N)OC3=C2C(=O)CC(C)(C)C3)c(OC)c1OC (stereo not shown)	8.28
C=CCNC(=S)NCc1ccccc1OC	7.33
CC/C(=N\NC(=O)c1ccccc1Cl)c1c(O)n(C2CCCCC2)c(=O)[nH]c1=O	10.6
O=C(CSc1ccsc1[N+](=O)[O-])NCc1ccco1	7.57
O=C(COc1ccc(S(=O)(=O)N2CCCCC2)cc1)N1CCCCCC1	4.45
Cc1ccc(CN(Cc2ccco2)C(=S)NCC(=O)NC2CC2)cc1	-0.242
